{"source": "paper PMC7819943", "about": "“Rice protein-binding microarrays: a tool to detect cis-acting elements near promoter regions in rice”", "note": "The list shows a part of the results.", "data": [{"biological_target": "T1, OsWOX13 (Oryza sativa, UniProt Q5QMM3 1-267)", "T1 sequence": "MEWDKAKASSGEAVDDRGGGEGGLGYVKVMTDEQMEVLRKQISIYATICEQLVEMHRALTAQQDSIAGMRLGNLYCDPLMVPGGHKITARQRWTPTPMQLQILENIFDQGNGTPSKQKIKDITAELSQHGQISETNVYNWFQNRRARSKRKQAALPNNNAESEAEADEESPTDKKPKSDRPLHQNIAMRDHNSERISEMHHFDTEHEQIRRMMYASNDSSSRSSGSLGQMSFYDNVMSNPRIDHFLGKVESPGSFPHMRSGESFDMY", "assay": "protein-binding microarray (RPBM); PBS, 2% BSA, 51.3 ng/ul salmon testes DNA, 50 uM zinc acetate, 200 nM TF, 25 C, 1 h; high values mean tight binding", "conditions": "protein: recombinant; tags: N-terminal polyhistidine and DsRed monomer fusion (pET32a); label: CyDye5-dUTP incorporated in the synthesized complementary strand; 3' TTTTT single-stranded linker to array surface; dsDNA, one strand shown", "summary_of_the_method": "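Binding signal here means per-feature fluorescence intensity in arbitrary units. The values were read on an Axon 4000B scanner after a custom Agilent array, double-stranded by primer extension with Cy5-dUTP, was incubated with 200 nM protein at 25 °C for 1 h in PBS with 2% BSA, salmon testes DNA and 50 µM zinc acetate, then washed. The proteins were transcription factors with an N-terminal polyhistidine tag and DsRed, expressed in E. coli BL21-CodonPlus and purified on Ni–NTA.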", "values": [{"sequence": "AGATTAATTTTGTACACCCTCCGCATTTTAATGTATGACGCGGAGTCACCTAGTGCAG", "binding signal": "10900 fluorescence intensity (a.u.)"}, {"sequence": "GCACACATGATCAATCAATTAATAGATTAGGTAGGTACGGCGGAGTCACCTAGTGCAG", "binding signal": "51100 fluorescence intensity (a.u.)"}, {"sequence": "GCAATCTATTATTAATTATATATGTATATATATGATAATTCGGAGTCACCTAGTGCAG", "binding signal": "5800 fluorescence intensity (a.u.)"}, {"sequence": "AATAAATTGGACCAGAAGCTAACATTGGATCTGAATTAAGCGGAGTCACCTAGTGCAG", "binding signal": "17400 fluorescence intensity (a.u.)"}, {"sequence": "ATGATAAGTATAATTACTTATCCTTGGTCTGTGTGTCAAGCGGAGTCACCTAGTGCAG", "binding signal": "11500 fluorescence intensity (a.u.)"}, {"sequence": "TTAATTGGATTGTTTTGATTCGTTGGAGAAGTTAGGAATACGGAGTCACCTAGTGCAG", "binding signal": "28600 fluorescence intensity (a.u.)"}, {"sequence": "GGTTAATTATGCGAAAGAGAATCTTAATCCCAGGGGCTTTCGGAGTCACCTAGTGCAG", "binding signal": "17600 fluorescence intensity (a.u.)"}, {"sequence": "TTATCATATATAATCATGAATTATAAACTAAAATAACTGCCGGAGTCACCTAGTGCAG", "binding signal": "4600 fluorescence intensity (a.u.)"}, {"sequence": "ATTGTCAACATAATCAATCTAAACCGTTTAATAGATATATCGGAGTCACCTAGTGCAG", "binding signal": "6110 fluorescence intensity (a.u.)"}, {"sequence": "GTTAATGGAGCCAATTGGTTCTCTGTATTTTGTTAGGCAACGGAGTCACCTAGTGCAG", "binding signal": "11200 fluorescence intensity (a.u.)"}, {"sequence": "TTGATTAGCCAAGAGTCAAGTGCATTGCTTCCATTTGTAGCGGAGTCACCTAGTGCAG", "binding signal": "18800 fluorescence intensity (a.u.)"}, {"sequence": "TTAATTAATTAACGTATGTACTCAGGAATTATATATAATACGGAGTCACCTAGTGCAG", "binding signal": "28600 fluorescence intensity (a.u.)"}, {"sequence": "ACCACCGCCGCCGCCGCCTGATTGGTGGTAATCGGAGGTGCGGAGTCACCTAGTGCAG", "binding signal": "4860 fluorescence intensity (a.u.)"}, {"sequence": "TAATCAATCATCACCACCATCTAATTTAACGACCACGGTCCGGAGTCACCTAGTGCAG", "binding signal": "36800 fluorescence intensity (a.u.)"}, {"sequence": "ACCTTGATTATTCTTCTCCAGGAATCGCAGCAGAGTGCGGCGGAGTCACCTAGTGCAG", "binding signal": "30800 fluorescence intensity (a.u.)"}, {"sequence": "CATCAATCATGATTGAAGATGATTCAAGGTTGAGAGGACCCGGAGTCACCTAGTGCAG", "binding signal": "53900 fluorescence intensity (a.u.)"}, {"sequence": "TTGCCGTGATTGTGTGATCTTGAATTTGATCGCTAGGAGGCGGAGTCACCTAGTGCAG", "binding signal": "40100 fluorescence intensity (a.u.)"}, {"sequence": "TGATCGATTGAAAGCAAATATCATCTTGAAAAGGATCGTTCGGAGTCACCTAGTGCAG", "binding signal": "3330 fluorescence intensity (a.u.)"}, {"sequence": "CGGAGTAAATTGTTTACTATCAAATCTATCTGCTGCCTATCGGAGTCACCTAGTGCAG", "binding signal": "13000 fluorescence intensity (a.u.)"}, {"sequence": "CATGTAATTACGTTTCGGCCCAAAACGGAAAGCAAAATTTCGGAGTCACCTAGTGCAG", "binding signal": "3640 fluorescence intensity (a.u.)"}, {"sequence": "TTCGTGATAGATGGTGTCAGGCATTTCACTGAATGATCTACGGAGTCACCTAGTGCAG", "binding signal": "5580 fluorescence intensity (a.u.)"}, {"sequence": "CTAAATTATAGCAGCGAACACACATCATGAGAAATACATCCGGAGTCACCTAGTGCAG", "binding signal": "5670 fluorescence intensity (a.u.)"}, {"sequence": "TATTCTCTCAACTGATTTCATTGACGAAATCTGTTGAGAACGGAGTCACCTAGTGCAG", "binding signal": "3150 fluorescence intensity (a.u.)"}, {"sequence": "ACCATCACAAACTTAATTAATTCCAATAGCATATACCAACCGGAGTCACCTAGTGCAG", "binding signal": "12100 fluorescence intensity (a.u.)"}, {"sequence": "CTTGAGTAATAAAGAAATAATTTGCATTAGTTAGTCAGTCCGGAGTCACCTAGTGCAG", "binding signal": "5070 fluorescence intensity (a.u.)"}, {"sequence": "AATGATTAGTAAATTTGAAGAGTAGTAGCTAGCTAGCTACCGGAGTCACCTAGTGCAG", "binding signal": "13100 fluorescence intensity (a.u.)"}, {"sequence": "TTATAGTTTTATGACTAAATTGATGCTACACATGTAGTTTCGGAGTCACCTAGTGCAG", "binding signal": "3910 fluorescence intensity (a.u.)"}, {"sequence": "TTTGCCGCTGAGTAATTAAATTGTCTACTTACAAATCCTCCGGAGTCACCTAGTGCAG", "binding signal": "3590 fluorescence intensity (a.u.)"}, {"sequence": "TTATCAATCGCGCAATTTGCAAATACGTCATCCTTTCAAGCGGAGTCACCTAGTGCAG", "binding signal": "7910 fluorescence intensity (a.u.)"}, {"sequence": "GCGTCTTAATGACAAGTGTTGATCTGACAGACCTGGAGCTCGGAGTCACCTAGTGCAG", "binding signal": "3680 fluorescence intensity (a.u.)"}, {"sequence": "GTAATATTATCAAATTAGTAAAATTTGATAAGGTTTAATTCGGAGTCACCTAGTGCAG", "binding signal": "7690 fluorescence intensity (a.u.)"}, {"sequence": "AGGGTAATAAATTGGAACCAAACCAAATAGGCCCATTATGCGGAGTCACCTAGTGCAG", "binding signal": "19400 fluorescence intensity (a.u.)"}, {"sequence": "CCCCTGTCTCAAAATGTAATAATTTATAATTCTTTAGGTGCGGAGTCACCTAGTGCAG", "binding signal": "3660 fluorescence intensity (a.u.)"}, {"sequence": "TCACTCTGATACAAATTTCAATTGATTTCAGGATATCAGACGGAGTCACCTAGTGCAG", "binding signal": "3430 fluorescence intensity (a.u.)"}, {"sequence": "CAGCTAAATGCCGATTAATTAAGGAAGGGATAAATCCTATCGGAGTCACCTAGTGCAG", "binding signal": "7860 fluorescence intensity (a.u.)"}, {"sequence": "ACGATTTATTTACCAGATTATTGCAATGGATTATCCTCTCCGGAGTCACCTAGTGCAG", "binding signal": "5390 fluorescence intensity (a.u.)"}, {"sequence": "TCCCAGGCCTGTTGATCATGCTTATTGGGAATGCTTTTCACGGAGTCACCTAGTGCAG", "binding signal": "5330 fluorescence intensity (a.u.)"}, {"sequence": "CTCCCGATCCCAATCAGCCTCAAGCCCCGCAGCACGGACACGGAGTCACCTAGTGCAG", "binding signal": "3410 fluorescence intensity (a.u.)"}, {"sequence": "TCCAATATAAACTGGATTAGGGCTATTACCTGTCAAGGGGCGGAGTCACCTAGTGCAG", "binding signal": "6200 fluorescence intensity (a.u.)"}, {"sequence": "CCTTTCAAATCAGATCCTAGTGATTGTCCCCTGGTTATAACGGAGTCACCTAGTGCAG", "binding signal": "9950 fluorescence intensity (a.u.)"}, {"sequence": "TTTGACAGCGGCTGATGTTATATAGAGGAAAACGATGAGGCGGAGTCACCTAGTGCAG", "binding signal": "12500 fluorescence intensity (a.u.)"}, {"sequence": "AAATATTCTGATTAGCTGCAGAGTGTTTCATTGGAAAATCCGGAGTCACCTAGTGCAG", "binding signal": "6160 fluorescence intensity (a.u.)"}, {"sequence": "AACTCTTAATTAATATAAACTATAAATATTAAATAATGAACGGAGTCACCTAGTGCAG", "binding signal": "10800 fluorescence intensity (a.u.)"}, {"sequence": "AATAAATTGGAGCTTCATCTTGGGTGACCAGACTATTTGGCGGAGTCACCTAGTGCAG", "binding signal": "22700 fluorescence intensity (a.u.)"}, {"sequence": "TTGGGACTGATTCGTCAATTCCCCGGATAATCAGGTCGATCGGAGTCACCTAGTGCAG", "binding signal": "8000 fluorescence intensity (a.u.)"}, {"sequence": "GTGACAAACTGACAACAGGTTGTTTAGTTTTCCATGATTACGGAGTCACCTAGTGCAG", "binding signal": "4530 fluorescence intensity (a.u.)"}, {"sequence": "TTTTGTTGACAGTAAATATTAATTTAGGGACGGTTTGAGTCGGAGTCACCTAGTGCAG", "binding signal": "7190 fluorescence intensity (a.u.)"}, {"sequence": "TGCCTATAATTGTAGAAGGGACACGGAGCCGATCGATCCACGGAGTCACCTAGTGCAG", "binding signal": "5260 fluorescence intensity (a.u.)"}, {"sequence": "CATTAAATTAGTGCTCAAGAAATATTTTCGTCGTAGTATACGGAGTCACCTAGTGCAG", "binding signal": "12300 fluorescence intensity (a.u.)"}, {"sequence": "AACACAAATTAGTTAATTGAATATAACATTTCATATAGTACGGAGTCACCTAGTGCAG", "binding signal": "34400 fluorescence intensity (a.u.)"}, {"sequence": "CGCTAATGTGTCCTCTAACATATAGAAGAGACAGAAACCACGGAGTCACCTAGTGCAG", "binding signal": "4220 fluorescence intensity (a.u.)"}, {"sequence": "ACTTGTTGACTAACTATTGTTAACTGTTATGCTGTGGTATCGGAGTCACCTAGTGCAG", "binding signal": "4870 fluorescence intensity (a.u.)"}, {"sequence": "CACATTATCAATCATCATTAATCATTAATTAGCTGCTTGCCGGAGTCACCTAGTGCAG", "binding signal": "36600 fluorescence intensity (a.u.)"}, {"sequence": "TCTGATAGTAATTGAAGTATAAAACAGAGGATTGCAAAACCGGAGTCACCTAGTGCAG", "binding signal": "24300 fluorescence intensity (a.u.)"}]}]}
